# In PubChem BioAssay AID686978 (National Center for Advancing Translational Sciences (NCATS), 2013):
# About 64,000 (15%) of roughly 420,000 compounds were called active. Inconclusive results, whose numbers are uncertain, are shown with a selection of clear calls. Calls follow the shape of the dose curve; as a rule, active = well fitted inhibition curve with a large enough effect; inconclusive = small, poorly fitted or top-dose-only effect; inactive = flat fitted curve, though single readings scatter. No potency is given beside an inconclusive call; the fits are too rough.
# Test: qHTS for Inhibitors of human tyrosyl-DNA phosphodiesterase 1 (TDP1): qHTS in cells in absence of CPT; also: nearly all actives have a fitted effect of over 55% in size
# Conditions: DT40 Tdp1-/- hTDP1 cells, no CPT, ATP luminescence, 48 h; activity change, negative = growth inhibition: at 46.2 µM (top of the series) unless noted
# Outline: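 Chicken DT40 Tdp1-/- cells complemented with human TDP1, screened without camptothecin (DMSO vehicle only), 400 cells/well. Compounds pin-transferred, cells incubated at 37 °C for at least 48 hr. Growth read as ATP-dependent luminescence (CellTiter-Glo, 30 min at RT).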
# % is scaled to controls: 0 for no effect and ±100 for the full control effect; potency is read from the fitted curve at half-maximal effect; tags tell the direction and shape of the fitted curve.
Compound,"activity change, negative = growth inhibition",Potency
O=C(COc1cccc(Br)c1)N/N=C/C(=O)c1ccccc1,inconclusive: -32.5% [inhibitor],–
Cc1ccc(-c2csc(NC(=O)c3cc([N+](=O)[O-])ccc3N3CCOCC3)n2)cc1,–,"inconclusive [inhibitor, single point]"
N#Cc1ccc(CSc2ncnc3c2cnn3Cc2ccccc2)cc1,–,"inconclusive [inhibitor, single point]"
COc1ccc(NS(=O)(=O)c2ccc(NC(=S)NC(=O)C(C)C)cc2)cc1,–,active: 16.4 µM
CN(C(=O)Cn1ncc2c1-c1ccccc1OC2)c1ccc(Br)cc1,–,"inconclusive [inhibitor, single point]"
O=C(Cn1nnc2c(cnn2-c2ccccc2)c1=O)N1CCN(c2ccccc2F)CC1,–,"inconclusive [inhibitor, single point]"
CCS(=O)(=O)c1cccc(C(=O)N2CCN(c3nc4c(C)ccc(Cl)c4s3)CC2)c1,–,"inconclusive [inhibitor, single point]"
C[C@@H]1CN([C@H](C)CO)C(=O)CCCn2nncc2CO[C@H]1CN(C)Cc1ccc(Cl)c(Cl)c1,–,"inconclusive [inhibitor, partial curve]"
C=C(C)COc1cc2oc(=O)c(CC(=O)N3C[C@H]4C[C@@H](C3)c3cccc(=O)n3C4)c(C)c2cc1Cl,–,"inconclusive [inhibitor, single point]"
CCCCCCCCCc1nc2sc3c(c2c(=O)n1NC(=O)c1ccccc1[N+](=O)[O-])CC(C)(C)OC3,–,"inconclusive [inhibitor, single point]"
COC(=O)c1ccc(CSc2nc3c([nH]c4ccccc43)c(=O)n2-c2cc(C)cc(C)c2)o1,–,"inconclusive [inhibitor, single point]"
COC(=O)c1c(O)c2ccccc2[nH]c1=O,inactive: -3.85%,–
CC1CN(c2nc3ccccc3nc2C(C#N)C(=O)NCc2ccc3c(c2)OCO3)CC(C)O1 (stereo not drawn),–,"inconclusive [inhibitor, full curve]"
Cc1ccc(S(=O)(=O)NCCC(=O)NCCSc2ccc(Br)cc2)cc1,–,"inconclusive [inhibitor, single point]"
Cc1[nH]c2ccccc2c1/C=C/c1cnc2ccccc2n1,–,active: 12.6 µM
COc1ccccc1CNS(=O)(=O)c1ccc(N2CCCCS2(=O)=O)cc1,–,active: 23.1 µM
COc1ccc(OC)c(CCNC(=O)C(C)n2c(C)c3cnn(-c4ccccc4)c(=O)c3c2C)c1 (stereo not drawn),–,"inconclusive [inhibitor, partial curve, poor fit]"
CCc1cc(C(=O)N2CCN(C(=O)c3ccccc3)CC2)sc1C,–,"inconclusive [inhibitor, single point]"
CCOC(=O)c1c(C)[nH]c(C)c1S(=O)(=O)N1CCC(C(=O)NCc2ccc(N(C)C)cc2)CC1,inactive: -18.5%,–
CN(C)C1(CNC(=O)COc2ccc(C(C)(C)C)cc2)CCCCC1,–,"inconclusive [inhibitor, single point]"
[O-][n+]1ccccc1/C=C/c1ccccc1,inactive: -1.59%,–
O=C(OCc1nc2scc(-c3ccccc3)c2c(=O)[nH]1)c1cc(Cl)ccc1[N+](=O)[O-],inactive: -28.3%,–

Compound,"activity change, negative = growth inhibition",Potency
Cc1ccc(O)c(NC(=S)NC(=O)c2ccc(-c3ccc(Cl)cc3)o2)c1,–,active: 25.9 µM
O=C(COc1ccccc1Cl)NCc1nc(-c2ccccc2)no1,inactive: -7.87%,–
Cc1cnc(C(=O)OCC(=O)c2cc(C)n(CCc3ccc(F)cc3)c2C)cn1,–,"inconclusive [inhibitor, single point]"
O=C(Nc1ccc2c(c1)OCO2)c1cc(-c2ccc(Cl)cc2)on1,–,"inconclusive [inhibitor, partial curve, poor fit]"
Cc1ccccc1OCC(=O)N/N=C/c1ccc(N(C)C)cc1,–,"inconclusive [inhibitor, single point]"
CCCCCn1c(-c2cccc(C)c2)nc2ccccc21,–,"inconclusive [inhibitor, single point]"
Cc1ccccc1N(CC(=O)NC1CCCCC1)C(=O)CCCC(=O)Nc1ccccn1,–,"inconclusive [inhibitor, partial curve]"
O=C1c2ccccc2-c2c1cccc2C(=O)N1CCCCCC1,inactive: -6.52%,–
Cc1cc(C)cc(-n2ccnc(NCc3ccc(F)cc3)c2=O)c1,–,"inconclusive [inhibitor, single point]"
CCC1CCCCN1C(=S)Nc1ccc(OC(F)F)cc1 (stereo not drawn),–,"inconclusive [inhibitor, single point]"
Cc1cc(C)c(NC(=O)c2cccc(NC(=O)c3ccco3)c2)c(C)c1,–,"inconclusive [inhibitor, single point]"
COCCCNCCCOc1ccc(C)cc1Br,–,"inconclusive [inhibitor, single point]"
O=C(c1ccncc1)N1CCC2(CCCN(c3cccc(-c4ccccc4)c3)C2)CC1,–,"inconclusive [inhibitor, single point]"
COc1ccc(N2CCN(C(CNC(=O)C(=O)NCc3ccc4c(c3)OCO4)c3ccco3)CC2)cc1 (stereo not drawn),inactive: -27.1%,–
COc1ccc(-c2cc(=O)c3c(O)c(OC)c(OC)c(OC)c3o2)cc1OC,–,"inconclusive [inhibitor, full curve]"
CCOC(=O)C1CCCN(C/C(O)=C(\C#N)c2nc(-c3ccccc3)cs2)C1 (stereo not drawn),inactive: -10.7%,–
O=C(NCC(c1ccco1)N1CCc2ccccc2C1)c1ccc(Cl)c([N+](=O)[O-])c1 (stereo not drawn),–,"inconclusive [inhibitor, single point]"
CC(=O)Nc1ccc(C(C#N)=Cc2ccc(N(C)CCC#N)cc2)cc1,–,active: 14.6 µM
CC(=O)Nc1ccc(NC(=O)C/C(C)=N/NC(=O)C(=O)Nc2ccc(C)c(Cl)c2)cc1,inactive: -0.694%,–
Cc1cn([C@H]2C[C@H](O)[C@@H](CNCc3cccn3-c3ccncc3)O2)c(=O)[nH]c1=O,inactive: -14.8%,–
Cn1cc(SCC(=O)Nc2ccc3c(c2)OCO3)c2ccccc21,–,"inconclusive [inhibitor, single point]"
